The text below walks through data of the supplement of paper PMC3334620.

The full ranking holds about 33,000 sequences; the median of “E-score (-0.5 to 0.5)” is about -0.021, and the highest 2% start at about 0.32. This is one part of the list.

The target in this assay is T1, Zap1 (UniProt P47043).
T1 sequence: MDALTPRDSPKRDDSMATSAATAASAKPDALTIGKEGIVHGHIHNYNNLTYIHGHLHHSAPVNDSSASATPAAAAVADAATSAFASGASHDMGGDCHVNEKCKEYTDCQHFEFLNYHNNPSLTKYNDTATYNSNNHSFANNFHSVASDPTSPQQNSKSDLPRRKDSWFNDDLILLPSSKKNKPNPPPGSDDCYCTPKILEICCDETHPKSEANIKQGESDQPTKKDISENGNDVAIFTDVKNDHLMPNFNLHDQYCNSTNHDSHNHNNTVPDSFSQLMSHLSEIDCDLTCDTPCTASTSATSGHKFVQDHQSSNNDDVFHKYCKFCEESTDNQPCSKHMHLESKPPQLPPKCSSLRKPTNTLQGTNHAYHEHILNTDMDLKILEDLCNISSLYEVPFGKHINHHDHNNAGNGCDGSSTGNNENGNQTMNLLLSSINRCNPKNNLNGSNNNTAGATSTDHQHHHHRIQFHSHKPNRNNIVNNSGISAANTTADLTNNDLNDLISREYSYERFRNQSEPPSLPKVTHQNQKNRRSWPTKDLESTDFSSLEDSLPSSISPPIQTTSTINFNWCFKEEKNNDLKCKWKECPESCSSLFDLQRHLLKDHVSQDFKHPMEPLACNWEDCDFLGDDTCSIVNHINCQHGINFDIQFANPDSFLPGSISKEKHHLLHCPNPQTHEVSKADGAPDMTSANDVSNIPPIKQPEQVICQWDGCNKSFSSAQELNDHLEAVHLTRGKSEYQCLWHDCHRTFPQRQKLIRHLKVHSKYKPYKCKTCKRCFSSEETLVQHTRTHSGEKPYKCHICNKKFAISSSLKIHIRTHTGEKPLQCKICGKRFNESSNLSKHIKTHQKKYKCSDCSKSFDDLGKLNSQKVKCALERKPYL
The assay can be described thus: PBM E-score (8-mer binding enrichment) (E-score (-0.5 to 0.5)); higher = stronger / more preferred TF binding; most listed sequences are background and not binding sites. As to conditions: protein concentration: 200 nM; construct: GST-full length. Summed up:
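For each ungapped eight-base word taken together with its reverse complement, the Universal PBM Analysis Suite assigned an E-score. Binding data came from GST-tagged yeast transcription factors, applied at about 100-200 nM, on universal all-10-mer Agilent arrays made double-stranded by primer extension. Fluorescent anti-GST marked bound protein, and scans were normalised with masliner.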
AAGCGAGC: the “PBM E-score” value was -0.0792. For CATGACAG the value was 0.0769; for ATACATAG, -0.113. On to AACTTCAA, for which the “PBM E-score” value was 0.101. As to CTACGCGA, the “PBM E-score” value was 0.0302. Consider ATAAAACC, for which the “PBM E-score” value amounted to 0.211.

For GTGAAATA, the “PBM E-score” value was 0.158. The same measure for ATAAGAGA: 0.0121; for GAACCTGA: 0.0822. For CAGCTTAA the value was -0.0577; for ACCTTCGA, 0.166. The same measure for GGACAACA: -0.0675; for ACACGACT: -0.153. Consider CATCGCAA, for which the “PBM E-score” value was -0.119.

On to TCACGGGA, for which the “PBM E-score” value came out at 0.0405. The same measure for AGATACAT: -0.0864; for TGACAAAA: 0.152; for TGCGCCCA: -0.235. The same measure for CCCGTCAG: -0.0426; for AACTGTGA: 0.108.

For GGAAAGTA, the “PBM E-score” value is 0.0173.

Turning to ACCCCTCA, the “PBM E-score” value came to 0.267. The same measure for TCGCGGCA: -0.122; for CCTACGGC: -0.277; for CACGACTG: -0.188.

Regarding ATGCGATC, the “PBM E-score” value is -0.0635. For AGGACCAT the value was -0.0487; for GGAGGTCA, 0.136; for CATTAATC, -0.00425. The same measure for AGTCCTAC: -0.0172. For AAACATAC the value was 0.0829; for GATCATAA, 0.149; for CGAGCTAC, -0.163. For TACGGTCA, the “PBM E-score” value worked out at 0.193.
